PubChem BioAssay AID1460 (National Center for Advancing Translational Sciences (NCATS), 2008)
In all, about 270,000 compounds went through this assay and about 5,800 (2.1%) were called active. Inconclusive means that the source gave no clear call. Such entries were picked first, then a sample of the others. Calls come from the whole dose curve; as a rule, active = well fitted inhibition curve with a large enough effect; inconclusive = small, poorly fitted or top-dose-only effect; inactive = flat fitted curve, though single readings scatter. A potency beside an inconclusive call is a rough fit, not a confirmed value.

Target: Microtubule-associated protein tau (Homo sapiens) (UniProt P10636)
Assay: qHTS for Inhibitors of Tau Fibril Formation, Thioflavin T Binding; note: nearly all actives have a fitted effect of over 55% in size
Settings: recombinant tau K18 P301L (four-repeat tau fragment), heparin-induced fibrillization, ThT fluorescence; series mostly up to 57.4 µM
Outline: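 Heparin-induced (20 uM) aggregation of recombinant human K18 P301L tau, 15 uM unlabeled with 0.24 uM labeled, pH 7 acetate buffer, 6 hr at 37 C with compound. Fibrils quantified by 30 uM ThT fluorescence after 1 hr ambient incubation.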
Potency is the fitted concentration of half-maximal effect; tags give direction and shape of the fitted curve.

Sequence of UniProt P10636 (P10636 whole entry, looked up): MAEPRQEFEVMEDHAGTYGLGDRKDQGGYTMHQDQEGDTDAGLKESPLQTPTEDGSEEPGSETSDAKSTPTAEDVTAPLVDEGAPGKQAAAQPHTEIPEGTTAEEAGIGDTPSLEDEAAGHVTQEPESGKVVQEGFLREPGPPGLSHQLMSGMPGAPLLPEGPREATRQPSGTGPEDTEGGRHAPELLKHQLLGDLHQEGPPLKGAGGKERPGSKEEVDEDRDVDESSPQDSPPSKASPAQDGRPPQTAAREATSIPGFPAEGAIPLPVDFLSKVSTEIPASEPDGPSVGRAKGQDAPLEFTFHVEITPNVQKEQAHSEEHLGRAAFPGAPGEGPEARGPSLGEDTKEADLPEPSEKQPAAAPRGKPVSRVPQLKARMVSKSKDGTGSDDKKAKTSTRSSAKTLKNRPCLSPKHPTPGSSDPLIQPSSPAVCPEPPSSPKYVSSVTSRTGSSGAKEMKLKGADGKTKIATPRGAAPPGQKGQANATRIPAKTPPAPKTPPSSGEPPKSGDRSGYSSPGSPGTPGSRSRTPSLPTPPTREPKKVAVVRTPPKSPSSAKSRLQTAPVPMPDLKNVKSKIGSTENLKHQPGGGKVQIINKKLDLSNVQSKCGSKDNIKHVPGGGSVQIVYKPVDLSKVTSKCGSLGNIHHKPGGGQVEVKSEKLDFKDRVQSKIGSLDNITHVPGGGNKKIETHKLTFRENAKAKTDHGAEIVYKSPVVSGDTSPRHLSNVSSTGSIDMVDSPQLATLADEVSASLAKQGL

Structure (SMILES) | Potency
FC(F)(F)c1ccc(Cl)c(N/N=C/c2ccc(N3CCOCC3)s2)c1 | inconclusive: 11.2 µM [inhibitor, partial curve]
COCC1CCN(Cc2cn[nH]c2-c2ccc(OC)cc2F)C1 (configuration not stated) | inactive
CCC1CCc2c(sc(NC(=O)c3ccco3)c2C(N)=O)C1 (configuration not stated) | inconclusive: 10 µM [inhibitor, partial curve]
Cc1cc(S(=O)(=O)NC2CCCCC2)ccc1OCC(=O)NCc1ccccn1 | inactive
O=C(COc1c(Br)cc(Br)c2cccnc12)N1CCCCC1 | inconclusive: 15.8 µM [inhibitor, partial curve]
Cc1ccc(NC(=O)c2c(C)oc3ccc(O)c(CN4CCOCC4)c23)cc1 | inconclusive: 12.6 µM [inhibitor, partial curve]
COc1ccc2c(c1)c(C(=O)N/N=C/c1cccc(Br)c1)c(C)n2C | inconclusive: 31.6 µM [inhibitor, partial curve, poor fit]
CN(Cc1ccco1)c1ncnc2ccc(-c3cccc(C#N)c3)cc12 | inconclusive: 25.1 µM [inhibitor, partial curve]
O=c1cc(N=Nc2ccc(Cl)cc2)[nH]c(=O)[nH]1 | active: 11.2 µM
O=C(N/N=C/c1c[nH]c2ccccc12)c1ccn(Cc2ccc(Cl)cc2)n1 | inconclusive: 14.1 µM [inhibitor, partial curve]
CC1=NN(c2ccccc2)C(=O)C1N=Nc1ccc(S(N)(=O)=O)cc1 (configuration not stated) | inconclusive: 0.178 µM [inhibitor, full curve]
CN(C)S(=O)(=O)N1CCN(c2ccc([N+](=O)[O-])c(NC3CC3)c2)CC1 | inconclusive: 15.8 µM [inhibitor, partial curve]
COc1ccc(NC(=O)Nc2nnc(N3CCCC3)s2)cc1 | inactive
S=C(NCc1ccco1)NC1CCCc2ccccc21 (configuration not stated) | inactive
CCC1(C(=O)OC)NC(c2ccco2)C2C(=O)N(c3ccccc3)C(=O)C21 (configuration not stated) | inconclusive: 39.8 µM [inhibitor, single point]
CCC(=O)N1c2ccccc2CC1C(=O)NCc1ccc(CC)cc1 (configuration not stated) | inactive
Cc1[nH][nH]c(=O)c1C(c1ccc(O)c([N+](=O)[O-])c1)c1c(C)[nH][nH]c1=O | inconclusive: 12.6 µM [inhibitor, partial curve]
CCc1ccc(-c2cc(C(=O)N/N=C/c3c[nH]c4ccccc34)[nH]n2)cc1 | inconclusive: 4.47 µM [inhibitor, partial curve]
Cc1ccc(N=C/C(C(=O)C(F)(F)F)=C(\O)c2cccs2)cc1 | inconclusive: 15.8 µM [inhibitor, partial curve]
Cc1cc(C)c2nc3sc(C(=O)N4CCOCC4)c(N)c3cc2c1 | inconclusive: 25.1 µM [inhibitor, partial curve]
OC[C@@H]1[C@@H](c2ccc(F)cc2)C(c2cccc(Cl)c2)=NN1c1ccccc1 | inconclusive: 56.2 µM [inhibitor, single point]
COc1ccc(Cc2n[nH]c(=S)n2C)cc1Br | inactive
CCOC(=O)c1ccc(NC(=O)c2nc[nH]c2C(=O)N(CC)CC)cc1 | inactive
O=C1c2ccccc2CCC12N=NCC2c1ccccc1 (configuration not stated) | inconclusive: 44.7 µM [inhibitor, single point]

Structure (SMILES) | Potency
COc1ccc(CNC(=O)CSc2nnc(C)c3c(C)n(-c4ccccc4)nc23)c(OC)c1 | inactive
Cc1ccc(CNS(=O)(=O)c2cnc(N)nc2)cc1 | inactive
Cc1cccc(N=N/C(=C\O)C(=O)c2ccc(Br)cc2)c1 | active: 22.4 µM
Cc1ccccc1NC(=O)Cn1nc(-c2ccccc2)nc(Cc2ccccc2)c1=O | inactive
CCC1CCC(NC2CCCCNC2=O)CC1 (configuration not stated) | inactive
COc1ccc(C(CNc2ccc(S(=O)(=O)N3CCCC3)cc2[N+](=O)[O-])N2CCCC2)cc1 (configuration not stated) | inactive
O=C(Oc1cccnc1)c1cc(S(=O)(=O)N2CCOCC2)ccc1Cl | inconclusive: 25.1 µM [inhibitor, partial curve]
CC1=C(C(=O)c2ccccc2)C(c2cn(-c3ccccc3)nc2-c2ccc(Cl)cc2)NC(=S)N1 (configuration not stated) | inconclusive: 15.8 µM [inhibitor, partial curve]
Cc1[nH]c2ccc(-c3n[nH]c(=S)n3Cc3ccccc3)cc2c1C | inconclusive: 28.2 µM [inhibitor, single point]
COc1cc(CNC(=O)c2cc3n(n2)CCCN(Cc2cccc(F)c2)C3=O)cc(OC)c1OC | inactive
CCOc1ccc(C(=O)NC(=S)NC2CCCC2)cc1[N+](=O)[O-] | inactive
COc1ccc(CCNC(=O)/C(C#N)=C/c2cccc(OCc3ccccc3)c2)cc1OC | inactive
Cc1cc(C)n(-c2nnc3c4ccccc4n(C)c3n2)n1 | inconclusive: 15.8 µM [inhibitor, single point]
COC(=O)c1ccc(C(NC(=O)OCc2ccccc2)/C(I)=C/[C@@H](C)C(=O)NCc2ccc(C)o2)cc1 (some centres not stated) | inconclusive: 10 µM [inhibitor, partial curve, poor fit]
COc1ccc(OC)c(C2C(C(=O)Nc3ccc(C)cc3)=C(C)Nc3nnnn32)c1 (configuration not stated) | inactive
Cn1c(=O)c2c(nc(N3CCN(c4ccc([N+](=O)[O-])cc4)CC3)n2C)n(C)c1=O | inconclusive: 8.91 µM [inhibitor, partial curve]
[O-]/C(=C(\C(=S)Nc1ccc(Cl)cc1)[n+]1ccccc1)c1ccc(OC(F)F)cc1 | inconclusive: 39.8 µM [inhibitor, single point]
COc1cccc(NC(=S)Nc2ccc(O)cc2)c1 | active: 17.8 µM
COc1ccc(-c2nc3sc(CCNC(=O)C(=O)Nc4ccc(OC)c(OC)c4)c(C)n3n2)cc1 | inconclusive: 0.708 µM [inhibitor, partial curve]
O=C(C/C=N/OCc1c(Cl)cccc1Cl)c1cnc(-c2ccccc2)s1 | inconclusive: 12.6 µM [inhibitor, partial curve]
Cc1ccc(-c2nnc(SCC(=O)NC3CCCc4ccccc43)n2N)cc1 (configuration not stated) | inconclusive: 22.4 µM [inhibitor, single point]
O=C(Nc1ccc2[nH]c3c(c2c1)CCCC3)c1ccco1 | inconclusive: 17.8 µM [inhibitor, partial curve]
Cc1cc(C(=O)COC(=O)CC2Sc3ccccc3NC2=O)c(C)n1-c1ccccc1 (configuration not stated) | inconclusive: 11.2 µM [inhibitor, partial curve]
Cc1cc(/C=C2\SC(=Nc3ccc(F)cc3)NC2=O)c(C)n1-c1ccc(S(N)(=O)=O)cc1 | active: 14.1 µM

Structure (SMILES) | Potency
CCOC(=O)CSc1nnc(CSc2nc3sc4c(c3c(=O)[nH]2)CCCC4)n1-c1ccccc1 | inactive
COc1ccc(Nc2nc(Cl)nc(NCCO)n2)cc1 | inactive
Cc1oc2cc(OC(=O)c3ccco3)ccc2c(=O)c1-c1nc2ccccc2n1C | inconclusive: 28.2 µM [inhibitor, partial curve]
COc1ccc(CC(=O)OCC(=O)Nc2ncc(Cl)cc2Cl)cc1 | inconclusive: 15.8 µM [inhibitor, partial curve]
Cc1ccc(-c2cc(-c3ccc(F)cc3)nc(N)c2C#N)o1 | inconclusive: 17.8 µM [inhibitor, partial curve]
CCSc1nnc2c(n1)[nH]c1c(C)cccc12 | inactive
COc1ccc(S(=O)(=O)N(CC(=O)Nc2ccccc2Br)Cc2ccccc2)cc1 | inactive
Oc1ccc(-c2onc3ccc(Cl)cc23)cc1 | inconclusive: 35.5 µM [inhibitor, partial curve]
O=C(NCc1ccc(F)cc1)C1CCN(S(=O)(=O)N2CCCCC2)CC1 | inconclusive: 39.8 µM [inhibitor, single point]
C=C(C)C(=O)Nc1nnc(-c2ccccc2C)s1 | inactive
Cc1ccc(S(=O)(=O)CCSc2nc(C)cc(C(F)(F)F)c2C#N)cc1 | inactive
COc1ccccc1NC(=O)C(=O)NCC(c1ccc2c(c1)OCO2)N1CCN(C)CC1 (configuration not stated) | inactive
CCOc1cc2sc(N3CCC(C(=O)Nc4ccc(C)cc4C)CC3)nc2cc1Br | inconclusive: 0.447 µM [inhibitor, full curve]
COc1ccc(NC(=O)COC(=O)CCCc2c[nH]c3ccccc23)cc1OC | inconclusive: 35.5 µM [inhibitor, partial curve]
O=C(N[C@@H](Cc1ccccc1)C(=O)CCl)OCc1ccccc1 | inactive
O=C(COc1ccc([N+](=O)[O-])cc1Cl)N1CCOCC1 | inactive
C/C(=N\Nc1ccc([N+](=O)[O-])cc1[N+](=O)[O-])c1ccc(-n2nncc2C(C)(C)C)cc1 | inconclusive: 4.47 µM [inhibitor, full curve]
Cc1cc(C(=O)N/N=C/c2ccc(OC(=O)c3ccccc3Br)cc2)n[nH]1 | inconclusive: 1.41 µM [inhibitor, full curve]
CC(=O)Oc1ccc(C(=O)[C@H]2[C@H]3C(=O)N(c4ccc(C)cc4)C(=O)[C@H]3[C@@H]3C=CC=NN32)cc1 | inconclusive: 35.5 µM [inhibitor, single point]
CCOC(=O)C1CCN(S(=O)(=O)c2cc(Br)cc3c2N(C(=O)CC)CC3)CC1 | inactive
CCCCSc1cnn(-c2ccccc2)c(=O)c1SCCCC | inconclusive: 25.1 µM [inhibitor, partial curve, poor fit]
Cc1[nH]nc2c1C(c1ccc(OC(=O)c3ccco3)cc1)C(C#N)=C(N)O2 (configuration not stated) | inconclusive: 28.2 µM [inhibitor, single point]
CC(C)(C)OC(=O)NCc1nc(N)n[nH]1 | inactive
COc1ccc2c(c1)[C@]1(C)CCC(=O)C[C@H]1CC2 | inactive
